This is one part of the list. At the low end of the ranking the order means little.

This test concerns the target GST-SBP-SLBP (stem-loop binding protein) (UniProt Q14493). The test is described as follows: targeted RNA Bind-n-Seq.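 Further: DESeq read counts versus GST-SBP nonspecific binding control pulldown.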 Particulars: RBNS binding buffer: 25 mM Tris pH 7.5, 150 mM KCl, 3 mM MgCl2, 0.1% Tween, 0.5 mg/mL BSA, 1 mM DTT; 27 nM protein, 750 pM RNA pool; temperature not stated; high values mean tight binding.
For the sequence “GGUCACGUCUCAAUCAACUCUUUUUCAGGAGUUUACUCCUGUAUAUUCAACAGCUCGCAGUCAAG”, the binding signal (log2 fold change) is -0.102.
To “GGUCACGUCUCAAUCAACUCUUCCGAGGGGGGGAAAACCCCUUUACCCUCACAUUCAACAGCUCGCAGUCAAG” belongs -0.296.
Take “GGUCACGUCUCAAUCAACUCAACUCCCAGGGAAAGCCCUGGUAAACUCAACAGCUCGCAGUCAAG”: the binding signal (log2 fold change) was -0.0848.
Take “GGUCACGUCUCAAUCAACUCUUCCUCCAGGGAAAGCCCUGGUUAUCUCAACAGCUCGCAGUCAAG”: the binding signal (log2 fold change) was 0.0356.
“GGUCACGUCUCAAUCAACUCCCACGAGGGGGGGAAAACCCCUUUACCCUCAUACUCAACAGCUCGCAGUCAAG”: the binding signal (log2 fold change) is -0.0469.
To “GGUCACGUCUCAAUCAACUCUCAAGAGGGGGGGAAAACCCCUUUACCCUCAUCGUCAACAGCUCGCAGUCAAG” belongs 0.0311.
To “GGUCACGUCUCAAUCAACUCUUUCCCCAGGGAAAACCCUGGUAAUUUCAACAGCUCGCAGUCAAG” belongs -0.172; to “GGUCACGUCUCAAUCAACUCUAUUCCCAGGGAAAUCCCUGGUAUUUUCAACAGCUCGCAGUCAAG”, -0.098.
To “GGUCACGUCUCAAUCAACUCUUUCCCAGGAGUUUUCUCCUGCAAUCUCAACAGCUCGCAGUCAAG” belongs -0.069.
“GGUCACGUCUCAAUCAACUCUACUCCCAGGGAAAUCCCUGGCUAACUCAACAGCUCGCAGUCAAG”: the binding signal (log2 fold change) is -0.251.
To “GGUCACGUCUCAAUCAACUCUUCUCCCAGGGAAAUCCCUGGCAAUCUCAACAGCUCGCAGUCAAG” belongs -0.0579; to “GGUCACGUCUCAAUCAACUCAUCGUCAGGAGUUUACUCCUGUUUUCUCAACAGCUCGCAGUCAAG”, 0.209.
“GGUCACGUCUCAAUCAACUCAACGCCAGGAGUUUCCUCCUGUAUUCUCAACAGCUCGCAGUCAAG”: the binding signal (log2 fold change) is 0.196.
To “GGUCACGUCUCAAUCAACUCAGUCUCAGGAGUUUACUCCUGCUUUCUCAACAGCUCGCAGUCAAG” belongs 0.213; to “GGUCACGUCUCAAUCAACUCUUCGUCAGGAGUUUCCUCCUGUUAUUUCAACAGCUCGCAGUCAAG”, 0.105.
To “GGUCACGUCUCAAUCAACUCUUCUCCAGGAGUUUACUCCUGUAUAUUCAACAGCUCGCAGUCAAG” belongs -0.305; to “GGUCACGUCUCAAUCAACUCAUCGCCAGGAGUUUUCUCCUGUAUUCUCAACAGCUCGCAGUCAAG”, 0.026; to “GGUCACGUCUCAAUCAACUCUACUCCCAGGGAAACCCCUGGCAUUUUCAACAGCUCGCAGUCAAG”, -0.0513.
With “GGUCACGUCUCAAUCAACUCAGUUUCAGGAGUUUUCUCCUGUUUUUUCAACAGCUCGCAGUCAAG”, the binding signal (log2 fold change) was -0.331.
As to “GGUCACGUCUCAAUCAACUCUUCGUCCAGGGAAACCCCUGGCUAUUUCAACAGCUCGCAGUCAAG”, the binding signal (log2 fold change) was -0.26.
To “GGUCACGUCUCAAUCAACUCCCUCGAGGGGGGGAAAACCCCUUUACCCUCAAAAUCAACAGCUCGCAGUCAAG” belongs 0.14; to “GGUCACGUCUCAAUCAACUCUUCCUCCAGGGAAAGCCCUGGCUUAUUCAACAGCUCGCAGUCAAG”, -0.0469; to “GGUCACGUCUCAAUCAACUCUUAGGAGGGGGGGAAAACCCCUUUACCCUCAACAUCAACAGCUCGCAGUCAAG”, -0.434.
To “GGUCACGUCUCAAUCAACUCAAUCCCAGGAGUUUCCUCCUGUUAAUUCAACAGCUCGCAGUCAAG” belongs 0.0542.
With “GGUCACGUCUCAAUCAACUCAAUCUCAGGAGUUUCCUCCUGUAAUCUCAACAGCUCGCAGUCAAG”, the binding signal (log2 fold change) came to 0.175.
With “GGUCACGUCUCAAUCAACUCUUUUCCCAGGGAAACCCCUGGUAUUUUCAACAGCUCGCAGUCAAG”, the binding signal (log2 fold change) turned out to be 0.194.
To “GGUCACGUCUCAAUCAACUCAGUCCCAGGAGUUUACUCCUGCUAUCUCAACAGCUCGCAGUCAAG” belongs 0.229; to “GGUCACGUCUCAAUCAACUCUUCCCCCAGGGAAAGCCCUGGCUUUUUCAACAGCUCGCAGUCAAG”, -0.229; to “GGUCACGUCUCAAUCAACUCAUUCUCAGGAGUUUUCUCCUGCAUUCUCAACAGCUCGCAGUCAAG”, 0.141.
To “GGUCACGUCUCAAUCAACUCAUCGUCAGGAGUUUCCUCCUGCAUUUUCAACAGCUCGCAGUCAAG” belongs -0.0702.
Regarding “GGUCACGUCUCAAUCAACUCAAUCUCCAGGGAAACCCCUGGCAUAGUCAACAGCUCGCAGUCAAG”, the binding signal (log2 fold change) amounted to 0.27.
To “GGUCACGUCUCAAUCAACUCAUUUUCCAGGGAAAUCCCUGGCGUUUUCAACAGCUCGCAGUCAAG” belongs 0.0422; to “GGUCACGUCUCAAUCAACUCAGUCUCAGGAGUUUUCUCCUGCUAUCUCAACAGCUCGCAGUCAAG”, 0.143; to “GGUCACGUCUCAAUCAACUCAUCCCCAGGAGUUUACUCCUGUUAAGUCAACAGCUCGCAGUCAAG”, 0.132.
As for “GGUCACGUCUCAAUCAACUCUACUUCAGGAGUUUACUCCUGUAUUCUCAACAGCUCGCAGUCAAG”, the binding signal (log2 fold change) was found to be 0.0404.
To “GGUCACGUCUCAAUCAACUCUUCCUCCAGGGAAAACCCUGGCAUACUCAACAGCUCGCAGUCAAG” belongs -0.0223; to “GGUCACGUCUCAAUCAACUCUUUCUCCAGGGAAAUCCCUGGCAUGUUCAACAGCUCGCAGUCAAG”, 0.0862.
In the case of “GGUCACGUCUCAAUCAACUCAUCUUCAGGAGUUUUCUCCUGUUUACUCAACAGCUCGCAGUCAAG”, the binding signal (log2 fold change) stood at 0.0707.
To “GGUCACGUCUCAAUCAACUCAAUUCCCAGGGAAAGCCCUGGUAUUCUCAACAGCUCGCAGUCAAG” belongs -0.202; to “GGUCACGUCUCAAUCAACUCUUCUCCCAGGGAAAUCCCUGGUUAUUUCAACAGCUCGCAGUCAAG”, -0.126; to “GGUCACGUCUCAAUCAACUCUUCCCCCAGGGAAAUCCCUGGUUUACUCAACAGCUCGCAGUCAAG”, -0.0579.
In the case of “GGUCACGUCUCAAUCAACUCACACGAGGGGGGGAAAACCCCUUUGCCCUCAUCUUCAACAGCUCGCAGUCAAG”, the binding signal (log2 fold change) was -0.392.
To “GGUCACGUCUCAAUCAACUCAUCAGAGGGGGGGAAAACCCCUUUACCCUCAUUAUCAACAGCUCGCAGUCAAG” belongs 0.163; to “GGUCACGUCUCAAUCAACUCAAAAGAGGGGGGGAAAACCCCUUUACCCUCGAAUUCAACAGCUCGCAGUCAAG”, 0.152; to “GGUCACGUCUCAAUCAACUCAAUCCCAGGAGUUUGCUCCUGCAAUGUCAACAGCUCGCAGUCAAG”, 0.182.
To “GGUCACGUCUCAAUCAACUCAAGGUCAGGAGUUUUCUCCUGUAUAUUCAACAGCUCGCAGUCAAG” belongs -0.0343; to “GGUCACGUCUCAAUCAACUCAUUUUCCAGGGAAAGCCCUGGCUUAUUCAACAGCUCGCAGUCAAG”, -0.195; to “GGUCACGUCUCAAUCAACUCUCCAGAGGGGGGGAAAACCCCUUUGCCCUCAUAUUCAACAGCUCGCAGUCAAG”, -0.273.
Consider “GGUCACGUCUCAAUCAACUCUACUUCCAGGGAAAGCCCUGGUAAUUUCAACAGCUCGCAGUCAAG”, for which the binding signal (log2 fold change) was -0.174.
With “GGUCACGUCUCAAUCAACUCUUUUCCCAGGGAAACCCCUGGCUAUUUCAACAGCUCGCAGUCAAG”, the binding signal (log2 fold change) is 0.152.
“GGUCACGUCUCAAUCAACUCAAUCCCCAGGGAAAUCCCUGGCUUUUUCAACAGCUCGCAGUCAAG”: the binding signal (log2 fold change) was 0.111.
For the sequence “GGUCACGUCUCAAUCAACUCAUUUCCCAGGGAAAGCCCUGGUAUUCUCAACAGCUCGCAGUCAAG”, the binding signal (log2 fold change) was -0.0221.
In the case of “GGUCACGUCUCAAUCAACUCAUUUUCAGGAGUUUUCUCCUGUAAUUUCAACAGCUCGCAGUCAAG”, the binding signal (log2 fold change) is 0.0767.
To “GGUCACGUCUCAAUCAACUCUUCUUCAGGAGUUUCCUCCUGUAAUUUCAACAGCUCGCAGUCAAG” belongs 0.219.
As to “GGUCACGUCUCAAUCAACUCAAUUUCCAGGGAAACCCCUGGCGUUUUCAACAGCUCGCAGUCAAG”, the binding signal (log2 fold change) was -0.244.
To “GGUCACGUCUCAAUCAACUCUAUUUCAGGAGUUUCCUCCUGUAUUCUCAACAGCUCGCAGUCAAG” belongs 0.176; to “GGUCACGUCUCAAUCAACUCAUCGUCAGGAGUUUUCUCCUGUAUAUUCAACAGCUCGCAGUCAAG”, -0.106; to “GGUCACGUCUCAAUCAACUCUCAAGAGGGGGGGAAAACCCCUUUACCCUCGUCCUCAACAGCUCGCAGUCAAG”, 0.105.
To “GGUCACGUCUCAAUCAACUCAUUCCCAGGAGUUUUCUCCUGCAUAUUCAACAGCUCGCAGUCAAG” belongs 0.237; to “GGUCACGUCUCAAUCAACUCAUCCCCAGGAGUUUACUCCUGCAAAGUCAACAGCUCGCAGUCAAG”, 0.0527; to “GGUCACGUCUCAAUCAACUCAUCGUCAGGAGUUUCCUCCUGUAUUCUCAACAGCUCGCAGUCAAG”, 0.103.
As for “GGUCACGUCUCAAUCAACUCUAUGUCAGGAGUUUUCUCCUGUUAAUUCAACAGCUCGCAGUCAAG”, the binding signal (log2 fold change) stood at 0.258.
To “GGUCACGUCUCAAUCAACUCAAGUCCAGGAGUUUUCUCCUGUAAUCUCAACAGCUCGCAGUCAAG” belongs 0.114; to “GGUCACGUCUCAAUCAACUCUAUCUCCAGGGAAAUCCCUGGUAAACUCAACAGCUCGCAGUCAAG”, 0.306.
With “GGUCACGUCUCAAUCAACUCUUCCCCAGGAGUUUUCUCCUGUAUUCUCAACAGCUCGCAGUCAAG”, the binding signal (log2 fold change) was -0.0726.
To “GGUCACGUCUCAAUCAACUCAAUUCCCAGGGAAAGCCCUGGCAUACUCAACAGCUCGCAGUCAAG” belongs 0.0504.
To “GGUCACGUCUCAAUCAACUCUAGUCCAGGAGUUUUCUCCUGCAAAUUCAACAGCUCGCAGUCAAG” belongs -0.152; to “GGUCACGUCUCAAUCAACUCUAUCCCCAGGGAAACCCCUGGCUUACUCAACAGCUCGCAGUCAAG”, 0.376; to “GGUCACGUCUCAAUCAACUCAUCCUCAGGAGUUUUCUCCUGUUUUUUCAACAGCUCGCAGUCAAG”, -0.187.
To “GGUCACGUCUCAAUCAACUCUUUCUCCAGGGAAAGCCCUGGCUUUUUCAACAGCUCGCAGUCAAG” belongs 0.0407; to “GGUCACGUCUCAAUCAACUCAUCCUCCAGGGAAAACCCUGGCUUACUCAACAGCUCGCAGUCAAG”, -0.171.
As for “GGUCACGUCUCAAUCAACUCACUAGAGGGGGGGAAAACCCCUUUACCCUCAAUCUCAACAGCUCGCAGUCAAG”, the binding signal (log2 fold change) was -0.13.
To “GGUCACGUCUCAAUCAACUCAAUCCCCAGGGAAAACCCUGGCAUUUUCAACAGCUCGCAGUCAAG” belongs -0.15.
For the sequence “GGUCACGUCUCAAUCAACUCUUCCUCAGGAGUUUCCUCCUGCUAUCUCAACAGCUCGCAGUCAAG”, the binding signal (log2 fold change) is 0.184.
To “GGUCACGUCUCAAUCAACUCAAUUCCAGGAGUUUUCUCCUGUUAACUCAACAGCUCGCAGUCAAG” belongs -0.101.

Source of the values: article PMC5892938.
